# Measurements: the supplement of paper PMC5499739
# In all, about 16,000 sequences were measured (“Z-score”: median about -0.37, highest 2% from about 3.2 on). Some of the results follow.
# System: RBM10 RRM1-ZnF (GST-tagged construct)
# Assay: RNAcompete 7-mer binding Z-score; higher = stronger binding preference
# Method in brief: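 A one-sided Z-score for enrichment, taken across the probes containing each heptamer motif, was assigned to every such motif. The RNA came from a designed pool of 241 399 sequences up to 41 nt (1.5 nmol), bound by 20 pmol of GST-tagged RBM10 constructs in 1 ml Hepes pH 7.8 buffer with glutathione Sepharose beads for 30 min at 4°C. Four 2-min washes at 4°C preceded identification of bound RNA by microarray hybridisation.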
row,Sequence,RNAcompete 7-mer binding Z-score
1,GAAGGCA,1.7
2,UUGUUGG,0.81
3,GCGCGAG,0.413
4,UUCAGCA,-0.402
5,AUUCCCC,-0.555
6,GGUGUGU,1.7
7,UCCUUGG,-0.243
8,CCUGAAU,-0.707
9,AAGCUGC,-0.425
10,GCGGAGC,1.01
11,AGUGCUG,0.322
12,AAUGAUG,0.348
13,GCCAUAU,-0.594
14,ACUGAAA,-0.402
15,AAAUUUC,-0.746
16,GCCUGCU,-0.724
17,UUAGCAC,-0.435
18,CAGACUG,-0.0999
19,GAAGUCA,-0.139
20,GUAUUUC,-0.756
21,CAGCACG,-0.0739
22,CAAACGU,-0.438
23,AUCUAAU,-0.659

row,Sequence,RNAcompete 7-mer binding Z-score
1,UGGAGGU,2.84
2,GUGGUUA,2.45
3,GGCAUCC,-0.162
4,UACGACG,-0.272
5,GCCGACG,-0.035
6,AGGACGG,2.1
7,UCGAUGG,0.923
8,ACAAACC,-0.746
9,GCCACAA,-0.542
10,UACUUAU,-0.694
11,AGGCCUA,-0.607
12,CAAAAUA,-0.565
13,UGCCACU,-0.698
14,GGCCUGC,-0.428
15,UUGACUC,-0.659
16,UGAAUUA,-0.155
17,GAGAAGA,1.22
18,ACUCCUA,-0.75
19,GCCCACC,-0.581
20,UUAUAGA,-0.324
21,GUAGAAA,1.03
22,ACGUUCC,-0.685
23,CAGUCGA,-0.269

row,Sequence,RNAcompete 7-mer binding Z-score
1,CUUAUAG,-0.555
2,AAUCAAG,-0.0187
3,UACGUUC,-0.694
4,GGUUGUC,0.4
5,ACACGGU,0.417
6,CCGAGCU,-0.629
7,AUAGCAC,-0.301
8,AGGUCCC,-0.467
9,CUCAUCG,-0.636
10,UGGAGUG,3.08
11,GUUGGGA,3.15
12,AAUCGCG,-0.402
13,CUAAGGU,0.27
14,UGAUCGG,0.849
15,CCGACGG,0.283
16,AGCAUCC,-0.548
17,GCUCAUA,-0.704
18,ACGAUUA,-0.366
19,CGCUUGG,-0.418
20,UCGUCAC,-0.34
21,GGUAUCG,0.868
22,ACCUACC,-0.685
23,AUUACUU,-0.704

row,Sequence,RNAcompete 7-mer binding Z-score
1,AACUCUU,-0.932
2,CCGUAAA,-0.688
3,AGUAUGC,-0.0252
4,GGAGCCC,0.478
5,GUCAGCC,-0.448
6,AAACAGU,-0.337
7,AACCGCG,-0.353
8,GCACCUC,-0.409
9,GGAAGAU,1.87
10,GAGACGG,1.8
11,CUUGGGG,1.44
12,AUAGGAA,2.16
13,UAACACC,-0.694
14,CGACGCC,-0.578
15,UUAUACA,-0.542
16,UGGGAUC,1.57
17,AUCGACC,-0.746
18,CCUAACC,-0.746
19,GCAGGUC,0.339
20,UGGCCGU,-0.337
21,UUAAAGG,0.813
22,GCGAUCU,-0.604
23,AGCCAGG,0.514

row,Sequence,RNAcompete 7-mer binding Z-score
1,UGAUAAU,-0.314
2,UGAUGAU,0.16
3,CCCGUCU,-0.737
4,UUACCCG,-0.665
5,CGUCGGA,0.0235
6,UUCUGGU,-0.262
7,GUUCAAU,-0.412
8,CAACCAU,-0.704
9,GAUGAUU,0.0138
10,GAUAGUC,-0.279
11,CGCGUGA,-0.155
12,AUUCAAU,-0.552
13,UACCGAG,-0.389
14,UCUGUCG,-0.733
15,GACCCUG,-0.438
16,CAGGGCU,0.699
17,UGACGUU,-0.552
18,AUGAUGA,0.212
19,GACUAUG,-0.0642
20,ACUCUGC,-0.86
21,CACGUGG,0.566
22,GAAAAAU,-0.145
23,GAAGAUA,0.55

row,Sequence,RNAcompete 7-mer binding Z-score
1,GCAACAU,-0.285
2,AUAAUCU,-0.649
3,CGUCGGC,-0.292
4,UGAUGUU,-0.279
5,GUUACCU,-0.402
6,AGUGCAA,0.176
7,GCUCUUA,-0.707
8,UUGAAGA,0.128
9,AUCUAAC,-0.681
10,UCUCGCA,-0.646
11,GACUCUC,-0.893
12,UCCGAUG,-0.464
13,GCAAAGA,0.348
14,CCACCAG,-0.386
15,UUGCUUG,-0.746
16,GUUAGGC,1.03
17,GGUCAGC,0.755
18,UAAGAGA,0.391
19,CCACGAC,-0.532
20,UAUUAGC,-0.438
21,GACGGAA,1.4
22,UAGUAGU,-0.035
23,UACAUGG,0.703

row,Sequence,RNAcompete 7-mer binding Z-score
1,GAUAAAC,-0.301
2,CACUAGG,0.235
3,AGACCAA,-0.623
4,UUGCCAC,-0.617
5,UGUGGAU,2.02
6,UGAUCAC,-0.0869
7,GAAUCCU,-0.763
8,GGCUGUC,-0.207
9,GCCCCCC,-0.175
10,UGGUACG,1.43
11,CGGCUUU,-0.743
12,GAUACUU,-0.571
13,UUCUCCC,-0.685
14,CGUACGC,-0.418
15,CUACUGC,-0.513
16,CGGGCCG,0.228
17,AUCUCUC,-0.919
18,GAGCCGU,-0.522
19,GUUAAUC,-0.217
20,UCGCCUG,-0.542
21,UUUACGC,-0.837
22,ACCAGCC,-0.672
23,GUCUCUU,-0.558

row,Sequence,RNAcompete 7-mer binding Z-score
1,ACGGGUG,3.39
2,CUCCUUG,-0.642
3,AAACCCA,-0.701
4,GGGAGUC,1.77
5,UUUUGCC,-0.834
6,GACCCCA,-0.662
7,UUAUGAU,-0.353
8,CGAGAAG,0.495
9,UCGGGAC,0.553
10,UUACUUG,-0.535
11,AAGUUUC,-0.808
12,CUCGCAC,-0.587
13,AAAUGCA,-0.184
14,AGGGAGC,2.12
15,CAUCAUA,-0.532
16,CUUCCGC,-0.743
17,UAGAGAG,0.842
18,GCGGCCU,-0.327
19,AACGUAU,-0.321
20,AUUAGAC,-0.464
21,GGGGCGA,2.46
22,UUAGCAG,0.00729
